# Results published in the supplement of paper PMC11417369.
# ± gives the standard deviation of the averaged measurements. This is one part of the list.
# System: PfAP2-G AP2 domain (GST-tagged)
# Experiment: gcPBM binding intensity (ln(normalized median fluorescence intensity)); higher = stronger DNA binding
# Outline: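 Alexa488 anti-GST antibody, scanned at 488 nm, detected GST-tagged P. falciparum DNA-binding domains that had been expressed in E. coli and incubated for 1 h on an Agilent 4 × 180k array. The array carried primer-extended double-stranded 36-bp intergenic genomic probes and negative controls. Binding intensity is the highest Masliner-normalised natural-log median intensity across replicate spots of either orientation of each probe.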
row,Sequence,gcPBM binding intensity (ln)
1,TAATTTTTTTTAAATACACACTGAAATGTGAATTTT [CACACA_site4476],9.755 ± 0.021
2,TTATATATATGTAATTGTACTTTTAATTTTTTTTTA [XGTACX_site4357],11.2 ± 0.62
3,ATATATATATATAATGCACACATTATGAATTATGTA [CACACA_site3384],9.9 ± 0.42
4,AAACAAAATGGTAACACACACATATATATATATATA [CACACA_site1939],10.2 ± 0.27
5,GTGTGATCTTTTGAAAGTACATTTTTTTTTTTTTTT [XGTACX_site6311],11.2 ± 0.62
6,ATAAAAATAAAAGACGCATGTTCTTAAAATAAGAAC [TGCATGCA_site189],9.91 ± 0.014
7,TGAACACCCAAATACACACACTCAAAAAAAAAAAAG [CACACA_site5467],10.3 ± 0.4
8,ACAAGAATACACCACGCACACACACTAGAGAAAAAA [CACACA_site9276],10.5 ± 0.46
9,AGGTCATACATAAAATGTACATATATATAAATATAT [XGTACX_site7147],10.9 ± 0.54
10,AATTGTTTGTTTGGGTGTACATGGTTCTATATAAAT [XGTACX_site7940],11.4 ± 0.6
11,TAAAGGAGCCTATGAACACACACATGTACTTATATT [CACACA_site9351],11.3 ± 0.76
12,ATTTTTTCTTTTTTTTTTCCGTTTTTTTGGACATTT [CACACA_negctrl_site1174],10.1 ± 0.45
13,AATAAAATATAAACATTATATATATATATATATATA [GTGCAC_negctrl_site58],10.2 ± 0.99
14,AACAAGGTATTAGGGTGTACTATATATATTTATATT [XGTACX_site7776],11.2 ± 0.69
15,ATAAAAAATAAATAAGGTACAGAACATTTATACATT [XGTACX_site1783],11 ± 0.62
16,AAATTAAACAATAAATGTACATATATATTTGTATAT [XGTACX_site1092],11.2 ± 0.42
17,AAAACCTAAAAGTCTTAAATTTTAAATATACCTACA [GTGCAC_negctrl_site492],9.78 ± 0.2
18,CTTTTATTGCTCTATATGCACACCTTAATTCTTCAT [CACACA_site2195],10.21 ± 0.021
19,GCAAAATTTCCTAAGGTGCTTTTATTTTACACCGTT [GTGCAC_site9923],9.97 ± 0.042

row,Sequence,gcPBM binding intensity (ln)
1,AATGGGTTAGCACATACACACCAATATATTATAGAT [CACACA_site7444],9.99 ± 0.014
2,TTTATTACCATATTTTGTACACACATCTTTATCTCA [XGTACX_site6842],11.1 ± 0.55
3,TGGAAAATTATTAACACACACATATAAATATATATA [CACACA_site46],9.78 ± 0.13
4,TTCTTACATAAAATATCACACACATAAAAAAACAAT [CACACA_site8576],10.09 ± 0.014
5,GTAATAAGAATTATAGTGCAATGTAATACATTTATA,9.79 ± 0.099
6,ACTCTATACATCTAATGTACATGGAAAAAAAAATTC [XGTACX_site733],11 ± 0.59
7,ATTAAAATGGTATGTGCGCACATAATATATATATGT [GTGCAC_site9572],10.7 ± 0.35
8,ACATTGACATGTCGAAGTACTCAAGAAGCATACAAT [XGTACX_site3948],11.2 ± 0.72
9,ATATAAATGATATGTACACACATTTATATTTATAAA [CACACA_site7600],11.5 ± 0.86
10,TTTCTTTGAATAAATACACACGAGAAATGAAAGTAG [CACACA_site8490],10.4 ± 0.33
11,TAATTTGAACGGTACAGTACTCTTTTTCTTTTTCAT [XGTACX_site5534],11.2 ± 0.57
12,ATATATTTTTTCAATTGTACGTTTTAATAATATTTA [XGTACX_site2130],11.3 ± 0.81
13,AATACAACATAATGAAGTACTGTATTTTATATTACT [XGTACX_site4885],10.8 ± 0.47
14,CTTGGGAAGTATTCAGTGCAAAATATAAGCAGGTCA [GTGCAC_site9758],10.08 ± 0.085
15,TCGTGGGAAAATATTACACACATTTACTATAGTATC [CACACA_site5836],10 ± 0.071
16,TATTACAAATAATACCGTACACAAATGTTTTTTTAT [XGTACX_site7977],11 ± 0.61
17,AAAAGAAATAAGGATACACACTATTGATAAAAGTAG [CACACA_site4309],10.28 ± 0.092
18,TATATTATCAAAATGGTGCAATAATTTCTATATTAT [GTGCAC_site9772],9.93 ± 0.14
19,ATATATATATTGAAAAGTACATATATATATATATTA [XGTACX_site1560],11.2 ± 0.68

row,Sequence,gcPBM binding intensity (ln)
1,ACCGGTGGAACGTTTTGTACATATATAATAATATAT [XGTACX_site2143],11.1 ± 0.79
2,TGGATAATCAAAAATTGTACAAGTGTTGTTATTGGT [XGTACX_site8010],11 ± 0.56
3,GAACCTTTAAAATACACACCCAAATCCTTTGAAATA [CACACA_site3630],10.1 ± 0.085
4,ATATTTTACAAATGCACACATAATTTTTTTTTTTTT [CACACA_site2763],9.825 ± 0.035
5,GGTTAAAAAAAGCATACACACTATCCTCTTTGCTCT [CACACA_site7246],9.77 ± 0.15
6,CTTTTTTATTTTTCAACACACATAATAAATTTCTAT [CACACA_site1037],9.96 ± 0.071
7,TACATAAATACATACATACACACATATATATATATA [CACACA_site2105],10.2 ± 0.33
8,TTTTTTTTTATATATACACACAATAAATAAATATAA [CACACA_site2954],10.1 ± 0.3
9,TTTATACAAAAGAACAGTACAATAAAGGATTTATGA [XGTACX_site811],10.7 ± 0.33
10,AGCAGACACCAACACACACACATATATATATATATA [CACACA_site337],10.2 ± 0.2
11,TATATATTAATCAAAGTGCAATAATAAAATAAAAGT [GTGCAC_site9490],10.19 ± 0.085
12,CTCTAATTAATATTTGTACACACATATTTAACCTAC [CACACA_site9043],11.4 ± 0.72
13,TAACTTTATTTTCCTGTACACACATTTGACATATTA [CACACA_site9116],11.5 ± 0.81
14,TCAAATTACGTAAGAACATGCGATATAAGAAATACG [TGCATGCA_site691],10.3 ± 0.11
15,AATTATTTTAAATATTGTACTATTACAGAATGGTGT [XGTACX_site5693],11 ± 0.56
16,ATATAAAAAATATAAGGTACACATATATGTAGATAT [XGTACX_site6792],11.2 ± 0.77
17,TAAATAAAATACAAATGTACATAAATAATAAATATA [XGTACX_site1813],11.1 ± 0.47
18,CATATTCCCCCCCACACACACACACGCATACATACC [CACACA_site7148],11.8 ± 0.6
19,TCTTTTTCATCTTTCAACAAAAAATAATATATGTGT [CACACA_negctrl_site866],10.1 ± 0.18
